The other results are listed elsewhere or left out. Construct or isoform of the protein are uncertain.

The test concerns the target GST-SBP-ILF3 (Homo sapiens) (UniProt Q12906). Nature of the test: targeted RNA Bind-n-Seq. Conditions: RBNS binding buffer: 25 mM Tris pH 7.5, 150 mM KCl, 3 mM MgCl2, 0.1% Tween, 0.5 mg/mL BSA, 1 mM DTT; 27 nM protein, 750 pM RNA pool; temperature not stated; high values mean tight binding; sequences stand for … in GGGUAAAAGCGAGGUGAA…CGGGACAAGUAUUAUGGG
Turning to “UUUUUUUUUUGAGACCGAUUCGGUCUCCUA [tttttgagapaired]”, the binding signal (log2 fold change) is -0.0663. In the case of “UUUUUUUUUUGAGACGGCGGCCGUCUUCUG [tttttgagapaired]”, the binding signal (log2 fold change) came to 0.975. To “UUUUUUUUUUGAGAUGGCAGCCAUCUCCUG [tttttgagapaired]” belongs 0.68; to “UUUUUUUUUUGAGAGCGACACGUUCUCCUG [tttttgagapaired]”, 0.344; to “UUUUUUUUUUGAGACUGCGGCAGUUUCCUA [tttttgagapaired]”, 0.649. To “GGUUGUGGUGUUGGUUCCUAACACCGCAGC [gtspaired]” belongs -0.753; to “UUUUUUUUUUGAGAGGGUAACCCUCUUCUG [tttttgagapaired]”, 0.222. To “UUUUUUUUUUGAGAGGGUACCCCUCUCCUA [tttttgagapaired]” belongs 0.222; to “UUUUUUUUUUGAGACUGCAUCAGUCUUCUA [tttttgagapaired]”, -0.0925.

On to “UUCCUCUCUCCUCCACGGGAGGGGGGAGGA [ctspaired]”, for which the binding signal (log2 fold change) was -0.362. Under “GUGGUUGGUGUUGGCGUCUAACACCAGCCA [gtspaired]” stands -0.455.

For the sequence “GGUGGUGGUGUUGGUGCCUAACACCAUCGC [gtspaired]”, the binding signal (log2 fold change) is -0.76. Under “GGUUGUUGUGUUGGUCUCUAACACAGCAAC [gtspaired]” stands -0.798; under “UUUUUUUUUUGAGAUGGUAUCCAUCUUCUA [tttttgagapaired]”, -0.0531; under “GGUGGUUGUGUUGGCGCCUAACACAGCCGC [gtspaired]”, -0.475. Under “UUUUUUUUUUGAGAGGGACUCCCUCUUCUA [tttttgagapaired]” stands 0.199; under “UUUUUUUUUUGAGACGGUCUCCGUCUCCUG [tttttgagapaired]”, 0.73; under “GUUGGUGGUGUUGGCAUCUAACACCGCCAG [gtspaired]”, -0.566. Under “UUUUUUUUUUGAGAUCGGUACGAUCUCCAG [tttttgagapaired]” stands 0.431.

Consider “UUUUUUUUUUGAGAUGGUGACUAUCUCCUA [tttttgagapaired]”, for which the binding signal (log2 fold change) was 0.357. Regarding “UUUUUUUUUUGAGAUCGAAACGAUUUCCUA [tttttgagapaired]”, the binding signal (log2 fold change) was -0.11. Under “UUUUUUUUUUGAGAGUGUAGCAUUCUCCAG [tttttgagapaired]” stands 0.174. To “UUUUUUUUUUGAGAUCGGUACGAUCUCCGG [tttttgagapaired]” belongs 0.566; to “GUGGUGUGUGUUGGAGCCUAACACACACUA [gtspaired]”, -0.416; to “UUUUUUUUUUGAGAGCGUAGCGCUCUCCGG [tttttgagapaired]”, 0.0541.

As to “UUUUUUUUUUGAGACUGAAUCAGUUUUCUA [tttttgagapaired]”, the binding signal (log2 fold change) is -0.477. To “UUCCUUCUUCCUCCUGGGGAGGGAGAGGGA [ctspaired]” belongs -0.464; to “UUUUUUUUUUGAGACCGGGCCGGUCUUCUG [tttttgagapaired]”, 0.747.

Values taken from article PMC5892938.
